Reference: patent EP2145538A1 (priority 2008, dated 2010)

Tested on: Cellulase aus T. reesei
Conditions: result in words

## OCCN1C[C@H](O)[C@@H](O)[C@H](O)[C@H]1CO [AI-2, Miglitol]
  Hemmung der Cellulase-Aktivität: konnte weder die im Handel erhältlichen Amylasen bzw. Cellulasen der verschiedenen Mikroorganismen noch die von Fusarium graminearum in vitro oder in der Pflanze gebildeten Amylasen inhibieren
